Common to all, as to experiment: split reporter; BiFC: fusions to the N-terminal half of YFP and the C-terminal moiety of CFP, transiently co-expressed in N. benthamiana leaves; confocal microscopy of mesophyll cells
For assay [1], the target named is T1, FBN2 fused to a half of a fluorescent protein (BiFC) (Arabidopsis thaliana) (UniProt O82291).
T1 sequence: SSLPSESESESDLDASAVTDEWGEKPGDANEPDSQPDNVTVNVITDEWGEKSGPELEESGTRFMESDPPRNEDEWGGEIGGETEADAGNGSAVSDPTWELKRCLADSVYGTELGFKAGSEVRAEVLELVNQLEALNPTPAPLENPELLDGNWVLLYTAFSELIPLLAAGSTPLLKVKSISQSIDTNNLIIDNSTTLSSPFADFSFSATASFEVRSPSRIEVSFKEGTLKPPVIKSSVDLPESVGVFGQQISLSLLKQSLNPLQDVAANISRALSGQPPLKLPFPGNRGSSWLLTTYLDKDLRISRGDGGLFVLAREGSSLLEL

Assay [2] deals with T2, FBN1a fused to a half of a fluorescent protein (BiFC) (Arabidopsis thaliana) (UniProt O81439).
T2 sequence: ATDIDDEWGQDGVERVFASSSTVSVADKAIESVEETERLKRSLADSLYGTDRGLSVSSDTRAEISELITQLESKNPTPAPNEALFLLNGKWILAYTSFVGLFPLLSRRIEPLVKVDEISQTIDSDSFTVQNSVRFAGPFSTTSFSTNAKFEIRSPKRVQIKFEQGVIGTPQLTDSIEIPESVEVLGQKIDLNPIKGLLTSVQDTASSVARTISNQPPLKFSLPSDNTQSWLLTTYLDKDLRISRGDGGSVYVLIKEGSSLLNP

In assay [3] the target is T3, FBN1b fused to a half of a fluorescent protein (BiFC) (Arabidopsis thaliana) (UniProt O49629).
T3 sequence: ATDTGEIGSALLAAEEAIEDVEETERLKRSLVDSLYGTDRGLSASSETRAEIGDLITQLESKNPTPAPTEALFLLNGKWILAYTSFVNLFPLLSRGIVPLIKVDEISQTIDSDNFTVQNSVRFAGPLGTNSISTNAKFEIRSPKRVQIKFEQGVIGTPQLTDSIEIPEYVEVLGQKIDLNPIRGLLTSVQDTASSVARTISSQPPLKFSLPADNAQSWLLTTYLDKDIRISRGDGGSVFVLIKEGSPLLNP

These results are taken from paper PMC8793873.

No constants are given. Whether binding was seen depends on the method and setting. Binding seen in cells or lysates may run through a third protein. Some entries that bind do so weakly or less than the wild type. Where a sequence is shown, tags or fusion partners need not be part of it.

B1: FBN1b fused to a half of a fluorescent protein (BiFC) (protein, UniProt O49629 60-310)
chain: ATDTGEIGSALLAAEEAIEDVEETERLKRSLVDSLYGTDRGLSASSETRAEIGDLITQLESKNPTPAPTEALFLLNGKWILAYTSFVNLFPLLSRGIVPLIKVDEISQTIDSDNFTVQNSVRFAGPLGTNSISTNAKFEIRSPKRVQIKFEQGVIGTPQLTDSIEIPEYVEVLGQKIDLNPIRGLLTSVQDTASSVARTISSQPPLKFSLPADNAQSWLLTTYLDKDIRISRGDGGSVFVLIKEGSPLLNP
With B1, the binding result in assay [1] is “binds”.

B2: FBN1a fused to a half of a fluorescent protein (BiFC) (protein, UniProt O81439 56-318)
chain: ATDIDDEWGQDGVERVFASSSTVSVADKAIESVEETERLKRSLADSLYGTDRGLSVSSDTRAEISELITQLESKNPTPAPNEALFLLNGKWILAYTSFVGLFPLLSRRIEPLVKVDEISQTIDSDSFTVQNSVRFAGPFSTTSFSTNAKFEIRSPKRVQIKFEQGVIGTPQLTDSIEIPESVEVLGQKIDLNPIKGLLTSVQDTASSVARTISNQPPLKFSLPSDNTQSWLLTTYLDKDLRISRGDGGSVYVLIKEGSSLLNP
Regarding B2, in assay [1], the binding entry is “binds”.

B3: Allene oxide synthase (AOS) fused to the C-terminal moiety of CFP (BiFC) (enzyme, UniProt Q96242 34-518)
chain: SGSETPDLTVATRTGSKDLPIRNIPGNYGLPIVGPIKDRWDYFYDQGAEEFFKSRIRKYNSTVYRVNMPPGAFIAENPQVVALLDGKSFPVLFDVDKVEKKDLFTGTYMPSTELTGGYRILSYLDPSEPKHEKLKNLLFFLLKSSRNRIFPEFQATYSELFDSLEKELSLKGKADFGGSSDGTAFNFLARAFYGTNPADTKLKADAPGLITKWVLFNLHPLLSIGLPRVIEEPLIHTFSLPPALVKSDYQRLYEFFLESAGEILVEADKLGISREEATHNLLFATCFNTWGGMKILFPNMVKRIGRAGHQVHNRLAEEIRSVIKSNGGELTMGAIEKMELTKSVVYECLRFEPPVTAQYGRAKKDLVIESHDAAFKVKAGEMLYGYQPLATRDPKIFDRADEFVPERFVGEEGEKLLRHVLWSNGPETETPTVGNKQCAGKDFVVLVARLFVIEIFRRYDSFDIEVGTSPLGSSVNFSSLRKASF
For the molecule B3, the binding entry in assay [2], in assay [1] and in assay [3] was “binds” in each case.

B4: FBN4 fused to the C-terminal moiety of CFP (BiFC) (protein, UniProt Q9LW57 73-284)
chain: SSSGSGGDDKQIALLKLKLLSVVSGLNRGLVASVDDLERAEVAAKELETAGGPVDLTDDLDKLQGKWRLLYSSAFSSRSLGGSRPGLPTGRLIPVTLGQVFQRIDVFSKDFDNIAEVELGAPWPFPPLEATATLAHKFELLGTCKIKITFEKTTVKTSGNLSQIPPFDIPRLPDSFRPSSNPGTGDFEVTYVDDTMRITRGDRGELRVFVIA
Consider B4, for which the binding entry in assay [2] and in assay [1] was “no binding” each time.

B5: FBN2 fused to a half of a fluorescent protein (BiFC) (protein, UniProt O82291 54-376)
chain: SSLPSESESESDLDASAVTDEWGEKPGDANEPDSQPDNVTVNVITDEWGEKSGPELEESGTRFMESDPPRNEDEWGGEIGGETEADAGNGSAVSDPTWELKRCLADSVYGTELGFKAGSEVRAEVLELVNQLEALNPTPAPLENPELLDGNWVLLYTAFSELIPLLAAGSTPLLKVKSISQSIDTNNLIIDNSTTLSSPFADFSFSATASFEVRSPSRIEVSFKEGTLKPPVIKSSVDLPESVGVFGQQISLSLLKQSLNPLQDVAANISRALSGQPPLKLPFPGNRGSSWLLTTYLDKDLRISRGDGGLFVLAREGSSLLEL
For B5, the binding result in assay [1] was “binds”.
